Results on 146 sequences are retold here after the BET-seq Pho4 binding data (Le et al. 2018).

The list shows a part of the results. These are noisy estimates, calculated here from bound and input reads.

This assay addresses T1, Pho4 (S. cerevisiae) (UniProt P07270).
T1 sequence: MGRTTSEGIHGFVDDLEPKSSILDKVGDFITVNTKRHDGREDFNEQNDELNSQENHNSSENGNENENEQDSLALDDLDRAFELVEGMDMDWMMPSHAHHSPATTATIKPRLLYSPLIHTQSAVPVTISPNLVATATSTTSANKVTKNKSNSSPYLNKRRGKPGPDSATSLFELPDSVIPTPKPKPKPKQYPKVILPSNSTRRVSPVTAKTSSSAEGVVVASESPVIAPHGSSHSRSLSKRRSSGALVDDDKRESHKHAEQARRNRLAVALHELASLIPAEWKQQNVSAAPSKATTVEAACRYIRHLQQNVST
The assay can be described thus: relative binding free energy (BET-seq); higher = weaker binding. The conditions noted are these: reference: library average.
Consider GTTGACACGTGAGTGT, for which the “relative binding free energy” value came out at 0.32 kcal/mol. Then CAGGGCACGTGGTAGT, with -0.19 kcal/mol; and AGATTCACGTGGAGCT, with 0.38 kcal/mol; and TTTGCCACGTGAAGTT, with 0.16 kcal/mol. The value for GTTCTCACGTGAAGGG was 0.4 kcal/mol; that for TTGTACACGTGTATAT was 0.03 kcal/mol; that for AGGTTCACGTGTAATT was 0.34 kcal/mol. Turning to TGGGGCACGTGTTGAC, the “relative binding free energy” value was 0.03 kcal/mol. The value for GGTATCACGTGGCTGA was 0.2 kcal/mol; that for AATTCCACGTGGATGG was 0.15 kcal/mol.

On to GTGGTCACGTGGTTGC, for which the “relative binding free energy” value came to 0.14 kcal/mol. As to CGTGGCACGTGTGAAT, the “relative binding free energy” value came out at 0.02 kcal/mol. On to AGTTTCACGTGGATCT, for which the “relative binding free energy” value is 0.25 kcal/mol. Take CTTTGCACGTGTTGAT: the “relative binding free energy” value was -0.03 kcal/mol.

As for GGTTGCACGTGTTCTA, the “relative binding free energy” value worked out at 0.05 kcal/mol. In the case of TGGATCACGTGATTAT, the “relative binding free energy” value was determined as 0.23 kcal/mol. Regarding GATCGCACGTGGGTAT, the “relative binding free energy” value is -0.09 kcal/mol.

Turning to CTGTACACGTGTTGTA, the “relative binding free energy” value came out at 0.05 kcal/mol. For the sequence CGTGGCACGTGGCCTG, the “relative binding free energy” value is -0.17 kcal/mol. As to TTTGGCACGTGATATG, the “relative binding free energy” value is -0.02 kcal/mol.

With GAGTTCACGTGATCTT, the “relative binding free energy” value was found to be 0.48 kcal/mol. Regarding TGGGCCACGTGTGTAG, the “relative binding free energy” value was -0.08 kcal/mol. With TTCAACACGTGGAGTG, the “relative binding free energy” value worked out at 0.05 kcal/mol. As to TTAGTCACGTGTGCAG, the “relative binding free energy” value was found to be 0.05 kcal/mol.

Take TTATGCACGTGAGTAA: the “relative binding free energy” value turned out to be 0.17 kcal/mol.

On to GGACTCACGTGTTTGA, for which the “relative binding free energy” value stood at 0.24 kcal/mol. AGGATCACGTGGAGAG: the “relative binding free energy” value came out at 0.22 kcal/mol. Consider CCTGTCACGTGGTGGG, for which the “relative binding free energy” value turned out to be 0.03 kcal/mol. For GGTAGCACGTGGATGC, the “relative binding free energy” value is -0.03 kcal/mol. As for TCAGACACGTGTTTTT, the “relative binding free energy” value was determined as 0.05 kcal/mol. In the case of TCTGTCACGTGGCGGT, the “relative binding free energy” value was determined as 0.01 kcal/mol. Turning to TTGGTCACGTGTGTGA, the “relative binding free energy” value was found to be 0.22 kcal/mol.

In the case of CAGTACACGTGAGGGT, the “relative binding free energy” value was 0.2 kcal/mol. For the sequence CTTGGCACGTGGGAGG, the “relative binding free energy” value was -0.13 kcal/mol.

As for TGTTTCACGTGGTGCA, the “relative binding free energy” value worked out at 0.18 kcal/mol. Turning to TTATGCACGTGTAACG, the “relative binding free energy” value came out at 0.05 kcal/mol. As to TCTGGCACGTGTGGTT, the “relative binding free energy” value worked out at 0.05 kcal/mol.

On to TGTGTCACGTGTCCTA, for which the “relative binding free energy” value amounted to 0.18 kcal/mol. Consider GTGAACACGTGGTCTG, for which the “relative binding free energy” value was determined as 0.02 kcal/mol. On to TATGTCACGTGAAAGT, for which the “relative binding free energy” value was determined as 0.23 kcal/mol. Take ATGTGCACGTGGGCGT: the “relative binding free energy” value was -0.16 kcal/mol.

In the case of CTGAGCACGTGTTGGG, the “relative binding free energy” value is -0.09 kcal/mol. Then GGTCGCACGTGGGGCA, with -0.3 kcal/mol; and AGGGGCACGTGCTATA, with -0.29 kcal/mol; and GGACTCACGTGTCGGT, with 0.3 kcal/mol. Then AGGGGCACGTGGGGGC, with -0.23 kcal/mol. Turning to TAGGACACGTGGGAGT, the “relative binding free energy” value is -0.01 kcal/mol. For ATGGTCACGTGCTGAA, the “relative binding free energy” value was determined as 0.23 kcal/mol. With TGTACCACGTGTTATG, the “relative binding free energy” value is -0.04 kcal/mol. For the sequence GATATCACGTGGGTTG, the “relative binding free energy” value is -0.06 kcal/mol. Regarding TGACTCACGTGTTAGG, the “relative binding free energy” value was 0.14 kcal/mol. Then TTTAGCACGTGCGAGT, with -0.01 kcal/mol; and TGTTGCACGTGTGAGC, with 0.07 kcal/mol; and GGGGCCACGTGTACGG, with 0.03 kcal/mol.

Take GGGCGCACGTGTAGTA: the “relative binding free energy” value is -0.02 kcal/mol. In the case of TGTTCCACGTGTGATT, the “relative binding free energy” value is 0.08 kcal/mol. For the sequence GTTTTCACGTGCTGTG, the “relative binding free energy” value is 0.22 kcal/mol. Turning to AGGAACACGTGCTTGG, the “relative binding free energy” value came out at 0.12 kcal/mol. TCGGGCACGTGTTGGA: the “relative binding free energy” value was 0.01 kcal/mol. Regarding ATTTGCACGTGTGATC, the “relative binding free energy” value came to 0.15 kcal/mol. Turning to GTAGACACGTGTTGAG, the “relative binding free energy” value was -0.03 kcal/mol. On to GCCGTCACGTGGGTTA, for which the “relative binding free energy” value was determined as 0.05 kcal/mol. Consider GGTCACACGTGGGGAA, for which the “relative binding free energy” value was 0.07 kcal/mol. As to GGATACACGTGCAGGG, the “relative binding free energy” value worked out at 0.04 kcal/mol. For the sequence ATGGGCACGTGGGGGT, the “relative binding free energy” value is -0.17 kcal/mol. As for GGGCTCACGTGCGGAG, the “relative binding free energy” value is 0.21 kcal/mol.

As to GATGTCACGTGGTTGG, the “relative binding free energy” value was found to be 0.13 kcal/mol. For CGGGGCACGTGAACGG, the “relative binding free energy” value is -0.01 kcal/mol. Then GGTTGCACGTGATTAC, with 0.2 kcal/mol. As for TGTATCACGTGATGGA, the “relative binding free energy” value stood at 0.23 kcal/mol. Then GGAGCCACGTGCTGGG, with -0.06 kcal/mol; and TGTATCACGTGTGCAG, with 0.09 kcal/mol.

As to TTGGACACGTGGCTTG, the “relative binding free energy” value was -0.11 kcal/mol.

Take TTATGCACGTGGGCAG: the “relative binding free energy” value was -0.17 kcal/mol. AGTGTCACGTGTAGCA: the “relative binding free energy” value was -0.09 kcal/mol. Then GCGTTCACGTGTAATT, with 0.38 kcal/mol; and CCTTGCACGTGTTGTG, with -0.14 kcal/mol. Regarding TTGCGCACGTGCGTTG, the “relative binding free energy” value is -0.08 kcal/mol. With TTTAGCACGTGTCAAG, the “relative binding free energy” value came out at 0.15 kcal/mol.

Turning to AAGTGCACGTGAGTTA, the “relative binding free energy” value was found to be 0.07 kcal/mol. For GGAGCCACGTGTGAGG, the “relative binding free energy” value is -0.05 kcal/mol. For the sequence GATTTCACGTGGAAGG, the “relative binding free energy” value stood at 0.28 kcal/mol. As for GGTTACACGTGCGTGA, the “relative binding free energy” value is 0.09 kcal/mol. On to CGTGGCACGTGACGGG, for which the “relative binding free energy” value stood at 0.02 kcal/mol. Take GTTAACACGTGATTTG: the “relative binding free energy” value was 0.28 kcal/mol. In the case of AATGGCACGTGCCGGG, the “relative binding free energy” value is -0.25 kcal/mol.

On to CGTGTCACGTGGCGTG, for which the “relative binding free energy” value amounted to 0.01 kcal/mol. Take GTGTTCACGTGGGCTC: the “relative binding free energy” value is 0.16 kcal/mol. On to ATATGCACGTGAGGTC, for which the “relative binding free energy” value came out at 0.06 kcal/mol. As for GTCCGCACGTGGTGAG, the “relative binding free energy” value came out at 0.03 kcal/mol. For CTGTTCACGTGTGTTT, the “relative binding free energy” value is 0.36 kcal/mol. Regarding TAGGTCACGTGTGTTA, the “relative binding free energy” value is 0.07 kcal/mol. The value for GGAAACACGTGGTTTT was -0.12 kcal/mol; that for GATGTCACGTGTAGGG was 0.25 kcal/mol; that for GGGGCCACGTGAGTGA was 0.22 kcal/mol. The value for TACGTCACGTGGGGAT was -0.12 kcal/mol; that for GATTTCACGTGGTGTT was 0.39 kcal/mol. As to TGTCTCACGTGGTAGC, the “relative binding free energy” value was 0.14 kcal/mol. For CTTGGCACGTGGGCCG, the “relative binding free energy” value is -0.21 kcal/mol. Take GTTTGCACGTGGGGTA: the “relative binding free energy” value is -0.11 kcal/mol.

TGTGGCACGTGTCTAG: the “relative binding free energy” value was -0.19 kcal/mol.

As for GTTTTCACGTGTATAC, the “relative binding free energy” value is 0.23 kcal/mol. Turning to TAGAACACGTGTAATG, the “relative binding free energy” value came to 0.08 kcal/mol.

Regarding GGAGTCACGTGTAGTG, the “relative binding free energy” value worked out at 0.28 kcal/mol. As for GATATCACGTGGGGAT, the “relative binding free energy” value amounted to 0.15 kcal/mol. With CTTGCCACGTGTAGGT, the “relative binding free energy” value is -0.01 kcal/mol. With ATTTGCACGTGGCAAG, the “relative binding free energy” value turned out to be 0.02 kcal/mol.

On to GATTACACGTGAATTT, for which the “relative binding free energy” value worked out at 0.52 kcal/mol.

Regarding CAAGTCACGTGGTCGG, the “relative binding free energy” value was determined as 0.03 kcal/mol.

With TTAGTCACGTGAGAGG, the “relative binding free energy” value came out at 0.25 kcal/mol. Regarding TGTATCACGTGTCGTG, the “relative binding free energy” value was 0.14 kcal/mol. Regarding GAAGACACGTGGTGGG, the “relative binding free energy” value stood at 0.05 kcal/mol. As to ACCTGCACGTGTGTGG, the “relative binding free energy” value is -0.12 kcal/mol. In the case of GGGGGCACGTGGAACG, the “relative binding free energy” value was -0.11 kcal/mol. Then GGGGGCACGTGCGATT, with -0.06 kcal/mol.

Take GGATTCACGTGTGTTC: the “relative binding free energy” value is 0.2 kcal/mol. The value for CGATACACGTGATTGG was 0.18 kcal/mol; that for TGGTGCACGTGTCAGA was 0.06 kcal/mol; that for TGTCGCACGTGCTAGG was -0.08 kcal/mol.

As to ATCGTCACGTGAGAGT, the “relative binding free energy” value was determined as 0.2 kcal/mol.

Turning to TGGTGCACGTGGCAGT, the “relative binding free energy” value is -0.13 kcal/mol. Consider GTCGGCACGTGCGGTG, for which the “relative binding free energy” value was -0.1 kcal/mol. For the sequence TGCGTCACGTGTGGCA, the “relative binding free energy” value is -0.01 kcal/mol.

Regarding TTTAGCACGTGAATCG, the “relative binding free energy” value amounted to 0.36 kcal/mol. For CGTTTCACGTGGCGTT, the “relative binding free energy” value is 0.25 kcal/mol.

With AGGAGCACGTGGGGCC, the “relative binding free energy” value is -0.21 kcal/mol. Then TTCTCCACGTGGGGTT, with -0.13 kcal/mol; and TTGTTCACGTGTTTAG, with 0.19 kcal/mol. On to AGTCGCACGTGGGGGG, for which the “relative binding free energy” value is -0.17 kcal/mol.

Consider TTAGACACGTGTTTGC, for which the “relative binding free energy” value is -0.03 kcal/mol. For the sequence GTATTCACGTGGTACA, the “relative binding free energy” value amounted to 0.08 kcal/mol. The value for AGTAGCACGTGATGTG was -0.1 kcal/mol; that for CGTCTCACGTGAATGT was 0.63 kcal/mol. As for TGGGACACGTGGCTTT, the “relative binding free energy” value came to 0.01 kcal/mol. The value for AGGGTCACGTGTTCGG was 0.14 kcal/mol; that for GAGAGCACGTGGCAGG was -0.16 kcal/mol. With CTTGTCACGTGAGTTG, the “relative binding free energy” value was 0.35 kcal/mol. Then GTTCCCACGTGGTGTT, with -0.09 kcal/mol. Consider AATTGCACGTGGTTGT, for which the “relative binding free energy” value is -0.08 kcal/mol. As to CTGGGCACGTGCGTGC, the “relative binding free energy” value is -0.09 kcal/mol. Regarding ATGGACACGTGGCTTG, the “relative binding free energy” value is -0.12 kcal/mol. For GTTTACACGTGGAGGC, the “relative binding free energy” value was 0.14 kcal/mol. Consider TCGGTCACGTGATATA, for which the “relative binding free energy” value was determined as 0.24 kcal/mol. As for TAAAGCACGTGCGTGT, the “relative binding free energy” value is -0.07 kcal/mol. The value for ACTGGCACGTGGGGGG was -0.23 kcal/mol. On to TGGGTCACGTGCTGAA, for which the “relative binding free energy” value is 0.08 kcal/mol.
